# Among all 360,000 compounds or so, about 16,000 (4.4%) were called active. The inconclusive results got no clear call from the source; some entries with a clear call stand among them for comparison. The call rests on the fitted dose curve; in most records, active means well fitted inhibition curve with a large enough effect; inconclusive means small, poorly fitted or top-dose-only effect; inactive means no such curve, though single readings can be large or run the other way. Potencies beside an inconclusive call are fits to weak or partial responses and may not hold up.
# Target: Bromodomain adjacent to zinc finger domain protein 2B (Homo sapiens) (UniProt Q9UIF8)
# Test: qHTS Assay for Inhibitors of BAZ2B; further: nearly all actives have a fitted effect of over 60% in size
# Details: AlphaScreen BAZ2B-H3K14Ac peptide displacement; series mostly up to 114 µM
# Outline: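 Inhibition is scored as reduced AlphaScreen emission. The BAZ2B/b-H3(5-23)K14Ac complex (50 nM each) in PBS pH 7.4, 0.01% Tween-20 meets compound (up to 110 uM) for 30 min at RT before bead addition.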
# Potency means the concentration at half of the fitted maximal effect; tags describe the fitted curve by direction and shape.
# UniProt Q9UIF8, sequence (Q9UIF8 whole entry, looked up, the tested form may be a part): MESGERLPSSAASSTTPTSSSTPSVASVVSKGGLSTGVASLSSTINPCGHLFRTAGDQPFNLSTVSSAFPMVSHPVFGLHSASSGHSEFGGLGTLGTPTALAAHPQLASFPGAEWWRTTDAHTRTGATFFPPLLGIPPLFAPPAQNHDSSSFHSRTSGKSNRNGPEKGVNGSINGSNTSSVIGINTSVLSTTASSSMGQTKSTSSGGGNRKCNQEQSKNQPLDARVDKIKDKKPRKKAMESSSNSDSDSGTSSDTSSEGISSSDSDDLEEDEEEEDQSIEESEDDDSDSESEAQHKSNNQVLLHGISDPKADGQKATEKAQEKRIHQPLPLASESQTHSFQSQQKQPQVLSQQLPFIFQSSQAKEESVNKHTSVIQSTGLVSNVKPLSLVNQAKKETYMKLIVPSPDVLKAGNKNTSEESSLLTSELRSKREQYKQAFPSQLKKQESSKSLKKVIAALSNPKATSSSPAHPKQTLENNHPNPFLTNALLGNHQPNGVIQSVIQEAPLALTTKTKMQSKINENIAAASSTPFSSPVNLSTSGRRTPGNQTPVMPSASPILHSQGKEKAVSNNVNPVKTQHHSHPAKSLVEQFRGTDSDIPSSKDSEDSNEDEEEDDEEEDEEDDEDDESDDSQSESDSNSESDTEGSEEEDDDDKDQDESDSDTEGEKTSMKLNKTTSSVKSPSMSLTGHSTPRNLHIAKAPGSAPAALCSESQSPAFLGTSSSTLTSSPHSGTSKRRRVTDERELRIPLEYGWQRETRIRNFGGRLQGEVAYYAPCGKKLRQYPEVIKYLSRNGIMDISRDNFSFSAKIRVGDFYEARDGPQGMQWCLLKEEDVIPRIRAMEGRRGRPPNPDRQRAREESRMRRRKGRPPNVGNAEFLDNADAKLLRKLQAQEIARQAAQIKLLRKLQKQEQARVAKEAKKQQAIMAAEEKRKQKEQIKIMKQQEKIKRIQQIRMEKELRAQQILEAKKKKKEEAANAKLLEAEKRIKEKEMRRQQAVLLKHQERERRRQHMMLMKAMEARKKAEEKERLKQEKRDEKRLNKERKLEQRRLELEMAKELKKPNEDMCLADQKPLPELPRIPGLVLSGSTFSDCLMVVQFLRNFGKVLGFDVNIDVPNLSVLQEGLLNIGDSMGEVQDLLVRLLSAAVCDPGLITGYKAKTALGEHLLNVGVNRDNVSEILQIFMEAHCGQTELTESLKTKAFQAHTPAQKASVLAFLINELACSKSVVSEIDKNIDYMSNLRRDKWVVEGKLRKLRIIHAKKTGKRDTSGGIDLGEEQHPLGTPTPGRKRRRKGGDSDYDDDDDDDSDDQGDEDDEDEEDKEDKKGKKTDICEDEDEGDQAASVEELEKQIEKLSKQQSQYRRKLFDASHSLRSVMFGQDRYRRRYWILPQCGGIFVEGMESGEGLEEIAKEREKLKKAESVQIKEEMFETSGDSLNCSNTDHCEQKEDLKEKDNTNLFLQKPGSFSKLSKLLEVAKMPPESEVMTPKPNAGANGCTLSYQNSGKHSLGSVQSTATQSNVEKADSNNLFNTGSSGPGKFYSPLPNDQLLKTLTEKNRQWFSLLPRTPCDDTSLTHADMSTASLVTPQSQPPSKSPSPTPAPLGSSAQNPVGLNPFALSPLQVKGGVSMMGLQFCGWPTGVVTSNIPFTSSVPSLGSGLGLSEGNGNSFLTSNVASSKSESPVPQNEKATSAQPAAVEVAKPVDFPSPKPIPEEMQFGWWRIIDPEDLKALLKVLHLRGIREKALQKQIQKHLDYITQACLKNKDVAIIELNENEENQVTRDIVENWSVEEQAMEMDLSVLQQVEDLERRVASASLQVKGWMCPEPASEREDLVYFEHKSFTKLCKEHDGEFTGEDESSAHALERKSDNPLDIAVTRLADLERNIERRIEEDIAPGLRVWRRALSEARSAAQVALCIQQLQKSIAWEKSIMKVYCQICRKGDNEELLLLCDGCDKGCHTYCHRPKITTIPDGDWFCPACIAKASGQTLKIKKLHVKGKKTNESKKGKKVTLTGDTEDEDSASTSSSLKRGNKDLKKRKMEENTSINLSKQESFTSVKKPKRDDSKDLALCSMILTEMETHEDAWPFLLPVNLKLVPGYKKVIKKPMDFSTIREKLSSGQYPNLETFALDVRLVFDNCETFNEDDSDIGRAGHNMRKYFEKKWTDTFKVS
row,Structure (SMILES),Potency
1,CN(C)c1ccc(N=Nc2ccccc2C(=O)OCC(=O)NC2CCCC2)cc1,active: 12.6 µM
2,CCCOc1ccc(C2/C(=C(/O)c3ccc(F)cc3)C(=O)C(=O)N2CCCN(C)C)cc1 (configuration not stated),inactive
3,O=C(O)CC1S/C(=N/N=C/c2ccccn2)NC1=O (configuration not stated),active: 44.7 µM
4,CN(C)c1cccc(C(=O)N2CCCC(C(=O)c3cc(F)ccc3F)C2)c1 (configuration not stated),"inconclusive: 79.4 µM [inhibitor, single point]"
5,Cc1nc(C)c(-c2csc(Nc3cccnc3)n2)s1,"inconclusive: 79.4 µM [inhibitor, single point]"
6,CCOC(=O)C1Sc2ccccc2NC1=O (configuration not stated),inactive
7,CC(Oc1ccccc1)C(=O)Nc1cccc(-c2nc3ccccc3[nH]2)c1 (configuration not stated),inactive
8,CCN(CC)C(=O)COc1ccc2oc(-c3ccco3)cc(=O)c2c1,"inconclusive: 56.2 µM [inhibitor, partial curve]"
9,CCN(CC)CCN(C(=O)c1ccc(S(=O)(=O)N2CCCCC2)cc1)c1nc2cc3c(cc2s1)OCO3,"inconclusive: 35.5 µM [inhibitor, full curve, poor fit]"
10,O=C(N/N=C/c1ccc(N2CCOCC2)cc1)c1ccccn1,"inconclusive: 79.4 µM [inhibitor, partial curve, poor fit]"
11,CC(C(=O)Nc1cccc(S(=O)(=O)N2CCOCC2)c1)N1CCN(c2ccc(F)cc2)CC1 (configuration not stated),"inconclusive: 79.4 µM [inhibitor, single point]"
12,Cc1ccc(S(=O)(=O)CNC(=S)c2ccc3ccccc3c2)cc1,"inconclusive: 89.1 µM [inhibitor, single point]"
13,CCOc1ccc(NC(=O)Nc2ccccc2SC)cc1,inactive
14,COCCNC(=O)COc1ccc(Br)cc1Cl,inactive
15,Cc1ccc(C(=O)OC(C)C(=O)Nc2ccc(Cl)cn2)s1 (configuration not stated),inactive
16,Cc1ccc(C)c(OCCC(=O)OCC(=O)N2c3ccccc3NC(=O)C2(C)C)c1,"inconclusive: 70.8 µM [inhibitor, partial curve]"
17,O=C(O)c1ccccc1N=Nc1c(O)[nH]c2ccc([N+](=O)[O-])cc12,active: 50.1 µM
18,N#CC1=C(N)OC2=C(C(=O)CC(c3ccccc3)C2)C1c1ccc2c(c1)OCO2 (configuration not stated),"inconclusive: 70.8 µM [inhibitor, single point]"
19,CCN(CC)S(=O)(=O)c1ccc2oc(Nc3ccc(OC)cc3OC)nc2c1,"inconclusive: 79.4 µM [inhibitor, single point]"
20,COC(=O)[C@@H]1CC[C@H](C)[C@@H](c2ccc(C)cc2)N1C(=O)c1ccc(/C=N/OCC[C@@H]2C=C[C@H](OC(C)=O)[C@@H](COC(C)=O)O2)cc1,"inconclusive: 79.4 µM [inhibitor, single point]"
21,CCOC(=O)c1[nH]c2cc(OC)c(OC)cc2c1NC(=O)CN1CCN(c2ccc(OC)cc2)C(C)C1 (configuration not stated),active: 44.7 µM
22,CC(C)NC(=S)N/N=C1\CCCCC1C1CCCCC1 (configuration not stated),"inconclusive: 35.5 µM [inhibitor, partial curve]"
23,O=C(CSc1ccc2c(c1)OCCO2)Nc1ncccc1O,"inconclusive: 89.1 µM [inhibitor, single point]"
24,CN1CSC2=C(C#N)C(c3cccc(OCc4ccccc4)c3)CC(=O)N2C1 (configuration not stated),"inconclusive: 89.1 µM [inhibitor, single point]"

row,Structure (SMILES),Potency
1,CCc1ccc(C(=O)COC(=O)c2cc([N+](=O)[O-])ccc2NCCO)cc1,"inconclusive: 44.7 µM [inhibitor, partial curve]"
2,C=CCOc1ccccc1CN1CCC(Cc2ccccc2)CC1,"inconclusive: 89.1 µM [inhibitor, single point]"
3,C=C(C)CNC(=S)N/N=C1\CCCCc2ccccc21,"inconclusive: 79.4 µM [inhibitor, single point]"
4,FC(F)(F)c1ccccc1NC(=S)Nc1cccc2cnccc12,"inconclusive: 79.4 µM [inhibitor, single point]"
5,CCCCC(c1nnnn1Cc1ccco1)N1CCN(C(=O)c2ccco2)CC1 (configuration not stated),"inconclusive: 79.4 µM [inhibitor, single point]"
6,CC(=O)c1sc(NC(C)c2ccccc2)nc1C (configuration not stated),inactive
7,CC(=O)N1c2ccc(S(=O)(=O)NCC3CCC(C(=O)Nc4ccc(C)cn4)CC3)cc2CC1C (configuration not stated),"inconclusive: 89.1 µM [inhibitor, single point]"
8,COc1ccc(/C=C(\C#N)c2c[nH]c3ccccc23)cc1,inactive
9,Cc1nn(-c2ccccc2)c(OC(=O)c2ccc(F)cc2)c1S(=O)(=O)c1ccccc1,"inconclusive: 79.4 µM [inhibitor, single point]"
10,COc1ccc(/C=C2\SC(=O)N(CCC(=O)Nc3ccccc3)C2=O)cc1OC,inactive
11,Cc1cc(Cl)ccc1NC(=S)N(CCCN1CCOCC1)Cc1cccs1,inactive
12,C#CCOCCOCCOCCNc1nc(N2CCN(C(=O)[C@H]([C@@H](C)CC)n3cc([C@@H](N)CO)nn3)CC2)nc(N2CCN(C(=O)[C@H]([C@@H](C)CC)n3cc([C@@H](N)Cc4ccc(O)cc4)nn3)CC2)n1,active: 28.2 µM
13,CCCCC(c1nnnn1C1CCCC1)N1CCN(C(=O)c2ccco2)CC1 (configuration not stated),active: 79.4 µM
14,COC(=O)c1cc(OC)c(OC)cc1NC(=O)c1ccccc1C,inactive
15,O=C(Nc1nnc(N2CCCCCC2)s1)Nc1ccccc1C(F)(F)F,inactive
16,CC(OC(=O)CNS(=O)(=O)c1ccc2ccccc2c1)C(=O)N(C)c1ccccc1 (configuration not stated),"inconclusive: 100 µM [inhibitor, partial curve]"
17,CC(C)n1nc(C(=O)Nc2nc3ccc(S(C)(=O)=O)cc3s2)c2ccccc2c1=O,inactive
18,C[C@]12C=CC(=O)C=C1CC[C@@H]1C2[C@@H](O)C[C@@]2(C)C1CC[C@]2(O)C(=O)COC(=O)CCC(=O)O (some centres not stated),inactive
19,CCN(CC(=O)Nc1ccc(OC)cc1)C(=O)Cc1cccs1,active: 50.1 µM
20,COc1cc([N+](=O)[O-])cc(/C=N/N(CCC#N)C(C)=O)c1O,"inconclusive: 56.2 µM [inhibitor, partial curve]"
21,CCCCCC1(C(=O)OCC)CC(CSC(=N)N)OC1=O (configuration not stated),inactive
22,Cc1ccc(C)n1-c1ccc(C(=O)NC2CCN(Cc3ccccc3)CC2)cc1,"inconclusive: 70.8 µM [inhibitor, single point]"
23,COC(=O)c1c(C)sc(-c2c(-c3ccc4c(c3)OCCO4)[nH]c3[nH]c(=O)[nH]c(=O)c23)c1O,active: 35.5 µM
24,COC(=O)c1ccc([C@H]2C=C(C(=O)O)O[C@@H](OCc3ccc(CO)cc3)C2)cc1,inactive

row,Structure (SMILES),Potency
1,O=C(NCCCn1ccnc1)c1cn(-c2ccccc2)nc1-c1ccccc1,"inconclusive: 79.4 µM [inhibitor, single point]"
2,N#CC1=C2SCN(c3ccc(F)cc3)CN2C(=O)CC1c1cccc(F)c1 (configuration not stated),"inconclusive: 89.1 µM [inhibitor, single point]"
3,COc1cc2c(C(=O)N3CCN(C)CC3)c(C)n(-c3ccccc3)c2cc1Br,"inconclusive: 79.4 µM [inhibitor, single point]"
4,O=C1/C(=C\c2ccc(O)cc2)SC(=S)N1/N=C/c1ccc(O)cc1,"inconclusive: 79.4 µM [inhibitor, single point]"
5,CCc1ccc(Nc2nnc(SCC(=O)Nc3sccc3C(N)=O)s2)cc1,"inconclusive: 50.1 µM [inhibitor, partial curve]"
6,O=C(COc1coc(CN2CCc3ccccc32)cc1=O)Nc1ccc([N+](=O)[O-])cc1,inactive
7,COc1ccc(CCNC(=O)c2ccc(N3CCCCS3(=O)=O)cc2)cc1OC,"inconclusive: 89.1 µM [inhibitor, single point]"
8,Cc1cc(C)c2c(n1)nn1c(C)c(CCC(=O)NCc3ccccc3Cl)c(C)nc21,inactive
9,Cc1cccc(C)c1NC(=S)NC(C)(C)CO,inactive
10,Cc1cccc(NC(=O)c2c(NC(=O)c3ccccc3)sc3c2CCCC3)c1,active: 56.2 µM
11,COC(=O)c1ccccc1NC(=O)CSc1nc(N)cc(=O)[nH]1,active: 56.2 µM
12,CCN1C(=O)[C@@H]2[C@@H](c3ccc(SC4CCCCC4)cc3)N3CCC[C@@]3(C(=O)OC)[C@@H]2C1=O,"inconclusive: 50.1 µM [inhibitor, partial curve]"
13,Cc1noc(/C=C/N(C)C)c1S(=O)(=O)N1CCN(c2ccc(F)cc2)CC1,"inconclusive: 35.5 µM [inhibitor, full curve]"
14,CC1CCCN(C(=O)C(C)Nc2cc(Cl)ccc2N2CCOCC2)C1 (configuration not stated),"inconclusive: 50.1 µM [inhibitor, partial curve]"
15,CC1=C(C(=O)Nc2cccc(C(=O)NCc3ccccc3C)c2)SCCO1,"inconclusive: 50.1 µM [inhibitor, partial curve]"
16,Cc1cc(N2CCOCC2)nc2ccccc12,inactive
17,Cc1cccc(C)c1NC(=S)N1CCCN(Cc2ccc(F)cc2)C1,"inconclusive: 79.4 µM [inhibitor, single point]"
18,COc1cccc(NC(=O)c2ccnc(N3CCC(C(=O)NCc4cc(OC)ccc4OC)CC3)c2)c1,inactive
19,O=C1ON=C(c2ccccc2)/C1=C/c1ccco1,active: 39.8 µM
20,COc1ccc(-c2ccc(CCC(=O)O)n2NC(N)=O)cc1,"inconclusive: 79.4 µM [inhibitor, single point]"
21,O=C1c2ccccc2C(=O)c2c1ccc1c(=O)n(C3CCCCC3)[nH]c21,active: 50.1 µM
22,Cc1cc(NC(=O)COC(=O)C2CC(=O)N(c3ccccc3)C2)no1 (configuration not stated),inactive
23,CCOc1cc(N2CCOCC2)c(OCC)cc1NC(=O)CCC1CCCC1,inactive
24,CC(=O)N1N=C(c2ccco2)CC1c1ccco1 (configuration not stated),inactive

# From PubChem BioAssay AID504333 (National Center for Advancing Translational Sciences (NCATS), 2011)
